# Assay results: PubChem BioAssay AID686979 (National Center for Advancing Translational Sciences (NCATS), 2013)
# The whole screen tested about 420,000 compounds, of which about 50,000 (12%) were called active. Inconclusive means that the source gave no clear call. Such entries were picked first, then a sample of the others. Calls come from the whole dose curve; as a rule, active = well fitted inhibition curve with a large enough effect; inconclusive = small, poorly fitted or top-dose-only effect; inactive = flat fitted curve, though single readings scatter. No potency is given beside an inconclusive call; the fits are too rough.
# Test: qHTS for Inhibitors of human tyrosyl-DNA phosphodiesterase 1 (TDP1): qHTS in cells in presence of CPT; note: nearly all actives have a fitted effect of over 55% in size
# Conditions: chicken DT40 Tdp1-/-;hTDP1 cells + 20 nM CPT, ATP luminescence, 48 h; activity change, negative = growth inhibition: at 46.2 µM (top of the series)
# Procedure, shortened: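 Chicken DT40 Tdp1-/- cells complemented with human TDP1, 400 cells/well, exposed to compounds plus 20 nM camptothecin for at least 48 h at 37 C; viability read as ATP content by CellTiter-Glo luminescence.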
# % is set by controls: 0 for no effect and ±100 for the full control effect; potency is the fitted concentration of half-maximal effect; tags give direction and shape of the fitted curve.
SMILES,Potency,"activity change, negative = growth inhibition"
CCOC(=O)CNC(=O)CNC(=O)c1ccc(OCC(C)C)cc1,"inconclusive [inhibitor, single point]",–
Cc1nc2ccc(NC(=O)c3ccccc3)cc2s1,–,inconclusive: -33.6% [inhibitor]
O=C(CCc1nc2ccccc2c(=O)[nH]1)NNC(=O)c1ccc(F)cc1,–,inactive: -7.46%
CC(C)(C)c1ccc(/C=N/NC(=O)C2CCCC2)cc1,active: 20.6 µM,–
Nc1c(-c2ccc(Cl)cc2)nnn1-c1ccccc1,–,inactive: -4.07%
COc1ccc(NC(=O)CCNC(=O)c2ccc([N+](=O)[O-])cc2)cc1S(=O)(=O)N1CCOCC1,–,inactive: -11.9%
O=C(NC(=S)Nc1ccccc1N1CCCC1)c1ccc(-c2cccc([N+](=O)[O-])c2)o1,"inconclusive [inhibitor, partial curve]",–
COc1ccc(CCNC(=O)c2cc3c(=O)n4cccc(C)c4nc3n(CC3CCCO3)c2=N)cc1 (stereo not given),active: 3.26 µM,–
CN(C(=O)c1ccc(NC(=O)Cc2ccc(NC(=O)C3CCN(C(=O)C4CCCCC4)CC3)cc2)cc1)C1CC1,"inconclusive [inhibitor, single point]",–
Cc1ccccc1C(=O)NNc1ncnc2c1cnn2C,"inconclusive [inhibitor, partial curve]",–
COc1ccc(-c2noc(CSc3nnc(-c4ccncc4)n3-c3ccccc3)n2)cc1,active: 16.4 µM,–
Cc1ccccc1-c1noc(CSc2nnc(Cc3ccccc3)n2-c2ccc(F)cc2)n1,"inconclusive [inhibitor, single point]",–
O=C(O)C1C=CCC(C(=O)O)C1 (stereo not given),–,inactive: 11.9%
CN(Cc1ccccc1)C(=O)COC(=O)c1cc(=O)[nH]c2ccccc12,–,inactive: -19.8%
Cc1nn(Cc2c(F)c(F)c(F)c(F)c2F)c(C)c1NC(=O)c1cccc(COc2ccccc2Cl)c1,"inconclusive [inhibitor, full curve]",–
COc1ccccc1NC(=S)N1CC(C)OC(C)C1 (stereo not given),–,inactive: -11.6%
CSc1nc(O)c(C(c2ccccc2Cl)c2c(O)nc(SC)[nH]c2=O)c(=O)[nH]1,–,inactive: 12.5%
COc1ccc(C(=O)N(CC2CCCO2)C(C(=O)NC2CCCC2)c2ccc(Cl)cc2)cc1OC (stereo not given),"inconclusive [inhibitor, partial curve, poor fit]",–
Cc1ccc(O)c(C2=Nc3ccccc3N=C(c3ccco3)C2)c1,"inconclusive [inhibitor, single point]",–
O=C(CCCN1CCC(n2c(=S)[nH]c3ccccc32)CC1)c1ccc(F)cc1,"inconclusive [inhibitor, single point]",–
